{
  "source": "the supplement of paper PMC4967469",
  "note": "By IC50 is meant the dose at which the fit gives 50% viability; fits outside the tested doses are given as limits. For AUC the same curve is integrated over the 256-fold range of doses and scaled to a fraction; values near 1 show little effect. A top dose marked as inferred was calculated from the reported fits.",
  "data": [
    {"compound": "CCOc1cc2ncc(C#N)c(Nc3ccc(F)c(Cl)c3)c2cc1NC(=O)/C=C/CN(C)C [EKB-569]", "assay": "Viability of human cancer cell lines after 72 h of drug (GDSC screen)", "details": "top dose inferred", "experimental": "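Human cancer cell lines in 384-well plates, medium with 10% serum, drug for 72 h over a 256-fold dose range (nine 2-fold or five 4-fold steps up to the top dose). Adherent lines were fixed and stained with the nucleic acid dye Syto60, suspension lines read with resazurin; signal relative to control wells, capped at 0 and 100%. One two-parameter sigmoid per drug and line, fitted in a mixed model over all curves with the slope shared within a line.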", "units": {"IC50": "nM"}, "values": [
      {"cell line": "HCC-44 (lung adenocarcinoma, adherent, top dose 2.5 µM)", "AUC": 0.928, "IC50": "> 2500"},
      {"cell line": "BHY (head and neck, adherent, top dose 2.5 µM)", "AUC": 0.673, "IC50": 476},
      {"cell line": "647-V (bladder, adherent, top dose 2.5 µM)", "AUC": 0.823, "IC50": 1480},
      {"cell line": "G-401 (kidney, adherent, top dose 2.5 µM)", "AUC": 0.88, "IC50": "> 2500"},
      {"cell line": "Farage (B-cell lymphoma, suspension, top dose 2.5 µM)", "AUC": 0.763, "IC50": 750},
      {"cell line": "KURAMOCHI (ovary, adherent, top dose 2.5 µM)", "AUC": 0.923, "IC50": "> 2500"},
      {"cell line": "D-247MG (glioma, adherent, top dose 2.5 µM)", "AUC": 0.978, "IC50": "> 2500"},
      {"cell line": "NCI-H23 (lung adenocarcinoma, adherent, top dose 2.5 µM)", "AUC": 0.981, "IC50": "> 2500"},
      {"cell line": "697 (lymphoblastic leukaemia, suspension, top dose 2.5 µM)", "AUC": 0.365, "IC50": 71.9},
      {"cell line": "TGW (neuroblastoma, adherent, top dose 2.5 µM)", "AUC": 0.947, "IC50": "> 2500"},
      {"cell line": "NCI-H661 (large cell lung carcinoma, adherent, top dose 2.5 µM)", "AUC": 0.852, "IC50": "> 2500"},
      {"cell line": "SK-MEL-30 (melanoma, adherent, top dose 2.5 µM)", "AUC": 0.928, "IC50": "> 2500"},
      {"cell line": "EFO-27 (ovary, adherent, top dose 2.5 µM)", "AUC": 0.829, "IC50": 2120},
      {"cell line": "LU-99A (large cell lung carcinoma, adherent, top dose 2.5 µM)", "AUC": 0.964, "IC50": "> 2500"},
      {"cell line": "TOV-112D (ovary, adherent, top dose 2.5 µM)", "AUC": 0.791, "IC50": 1130},
      {"cell line": "CAPAN-1 (pancreas, adherent, top dose 2.5 µM)", "AUC": 0.816, "IC50": 1580},
      {"cell line": "SK-MG-1 (glioma, adherent, top dose 2.5 µM)", "AUC": 0.987, "IC50": "> 2500"},
      {"cell line": "A172 (glioma, adherent, top dose 2.5 µM)", "AUC": 0.962, "IC50": "> 2500"},
      {"cell line": "D-542MG (glioma, adherent, top dose 2.5 µM)", "AUC": 0.984, "IC50": "> 2500"},
      {"cell line": "NALM-6 (B-cell leukaemia, suspension, top dose 2.5 µM)", "AUC": 0.483, "IC50": 142},
      {"cell line": "KELLY (neuroblastoma, adherent, top dose 2.5 µM)", "AUC": 0.986, "IC50": "> 2500"},
      {"cell line": "MDA-MB-453 (breast, adherent, top dose 20 µM)", "AUC": 0.656, "IC50": 3580},
      {"cell line": "CHL-1 (melanoma, adherent, top dose 2.5 µM)", "AUC": 0.557, "IC50": 222},
      {"cell line": "JSC-1 (B-cell lymphoma, suspension, top dose 2.5 µM)", "AUC": 0.771, "IC50": 947},
      {"cell line": "WSU-NHL (lymphoid neoplasm, suspension, top dose 2.5 µM)", "AUC": 0.95, "IC50": "> 2500"},
      {"cell line": "MPP-89 (mesothelioma, adherent, top dose 2.5 µM)", "AUC": 0.968, "IC50": "> 2500"},
      {"cell line": "NU-DUL-1 (B-cell lymphoma, suspension, top dose 2.5 µM)", "AUC": 0.802, "IC50": 957},
      {"cell line": "NTERA-2 cl.D1 (testis, adherent, top dose 2.5 µM)", "AUC": 0.943, "IC50": "> 2500"},
      {"cell line": "CAL-148 (breast, suspension, top dose 2.5 µM)", "AUC": 0.979, "IC50": "> 2500"},
      {"cell line": "HCC-78 (lung adenocarcinoma, adherent, top dose 2.5 µM)", "AUC": 0.865, "IC50": "> 2500"},
      {"cell line": "CAL-12T (non-small cell lung carcinoma, adherent, top dose 2.5 µM)", "AUC": 0.577, "IC50": 261},
      {"cell line": "BE-13 (lymphoblastic leukaemia, suspension, top dose 2.5 µM)", "AUC": 0.724, "IC50": 643},
      {"cell line": "EPLC-272H (lung squamous cell carcinoma, adherent, top dose 2.5 µM)", "AUC": 0.726, "IC50": 752},
      {"cell line": "NCI-H647 (non-small cell lung carcinoma, adherent, top dose 2.5 µM)", "AUC": 0.771, "IC50": 1000},
      {"cell line": "CAL-51 (breast, adherent, top dose 2.5 µM)", "AUC": 0.974, "IC50": "> 2500"},
      {"cell line": "CHP-134 (neuroblastoma, suspension, top dose 2.5 µM)", "AUC": 0.962, "IC50": "> 2500"},
      {"cell line": "JHOS-3 (ovary, adherent, top dose 2.5 µM)", "AUC": 0.921, "IC50": "> 2500"},
      {"cell line": "CA46 (Burkitt lymphoma, suspension, top dose 2.5 µM)", "AUC": 0.778, "IC50": 1090},
      {"cell line": "AGS (stomach, adherent, top dose 2.5 µM)", "AUC": 0.972, "IC50": "> 2500"},
      {"cell line": "GR-ST (lymphoblastic leukaemia, suspension, top dose 2.5 µM)", "AUC": 0.866, "IC50": "> 2500"},
      {"cell line": "LS-513 (large intestine, adherent, top dose 20 µM)", "AUC": 0.496, "IC50": 1220},
      {"cell line": "NCI-H524 (small cell lung carcinoma, suspension, top dose 2.5 µM)", "AUC": 0.918, "IC50": "> 2500"},
      {"cell line": "SK-MEL-5 (melanoma, adherent, top dose 2.5 µM)", "AUC": 0.971, "IC50": "> 2500"},
      {"cell line": "TK10 (kidney, adherent, top dose 2.5 µM)", "AUC": 0.854, "IC50": "> 2500"},
      {"cell line": "C-4-I (cervix, adherent, top dose 2.5 µM)", "AUC": 0.967, "IC50": "> 2500"},
      {"cell line": "TGBC1TKB (biliary tract, adherent, top dose 2.5 µM)", "AUC": 0.976, "IC50": "> 2500"},
      {"cell line": "BT-20 (breast, adherent, top dose 2.5 µM)", "AUC": 0.893, "IC50": "> 2500"},
      {"cell line": "K5 (thyroid, adherent, top dose 2.5 µM)", "AUC": 0.987, "IC50": "> 2500"},
      {"cell line": "CAL-54 (kidney, adherent, top dose 2.5 µM)", "AUC": 0.928, "IC50": "> 2500"},
      {"cell line": "HT-29 (large intestine, adherent, top dose 2.5 µM)", "AUC": 0.903, "IC50": "> 2500"},
      {"cell line": "LN-18 (glioma, adherent, top dose 2.5 µM)", "AUC": 0.994, "IC50": "> 2500"},
      {"cell line": "EC-GI-10 (oesophagus, adherent, top dose 2.5 µM)", "AUC": 0.987, "IC50": "> 2500"},
      {"cell line": "EMC-BAC-2 (lung adenocarcinoma, adherent, top dose 2.5 µM)", "AUC": 0.719, "IC50": 741},
      {"cell line": "NB14 (neuroblastoma, adherent, top dose 2.5 µM)", "AUC": 0.987, "IC50": "> 2500"},
      {"cell line": "RERF-GC-1B (stomach, adherent, top dose 2.5 µM)", "AUC": 0.899, "IC50": "> 2500"},
      {"cell line": "OV-56 (ovary, adherent, top dose 2.5 µM)", "AUC": 0.985, "IC50": "> 2500"},
      {"cell line": "HuP-T4 (pancreas, adherent, top dose 2.5 µM)", "AUC": 0.757, "IC50": 908},
      {"cell line": "Calu-6 (lung adenocarcinoma, adherent, top dose 20 µM)", "AUC": 0.725, "IC50": 6060},
      {"cell line": "A3-KAW (B-cell lymphoma, suspension, top dose 2.5 µM)", "AUC": 0.42, "IC50": 98.9},
      {"cell line": "ME-180 (cervix, adherent, top dose 2.5 µM)", "AUC": 0.651, "IC50": 419}
    ]}
  ]
}
